# Measurements from the supplement of paper PMC8728848.
# The list shows a part of the results.
# What was measured:
# Assay in all cases: glycan array binding signal (z-score within array); higher = stronger binding
# Settings in all cases: glycan notation: IUPAC condensed, linker removed
# [1] = molecular target: Gal(b1-4)GlcNAc(b1-3)Gal(b1-4)GlcNAc(b1-3)Gal(b1-4)GlcNAc(b1-3)Gal(b1-4)GlcNAc(b1-3)Gal(b1-4)GlcNAc(b1-2)Man(a1-3)[Gal(b1-4)GlcNAc(b1-3)Gal(b1-4)GlcNAc(b1-3)Gal(b1-4)GlcNAc(b1-3)Gal(b1-4)GlcNAc(b1-3)Gal(b1-4)GlcNAc(b1-2)Man(a1-6)]Man(b1-4)GlcNAc(b1-4)GlcNAc
# In short: (§1)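 Glycan array data came from 3228 arrays in the Consortium for Functional Glycomics database, and only arrays with an available protein sequence were kept. Glycan names were put into IUPAC-condensed notation, and columns mapping to the same glycan were averaged. The binding signal is a within-array Z-score, averaged across arrays of one protein sequence run at different concentrations or buffers and across linkers. A negative Z-score can be read as non-binding.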
# [2] = molecular target: Gal(b1-4)GlcNAc(b1-3)Gal(b1-4)GlcNAc(b1-3)Gal(b1-4)GlcNAc(b1-3)Gal(b1-4)GlcNAc(b1-3)Gal(b1-4)GlcNAc(b1-2)Man(a1-3)[Gal(b1-4)GlcNAc(b1-3)Gal(b1-4)GlcNAc(b1-3)Gal(b1-4)GlcNAc(b1-3)Gal(b1-4)GlcNAc(b1-3)Gal(b1-4)GlcNAc(b1-2)Man(a1-6)]Man(b1-4)GlcNAc(b1-4)[Fuc(a1-6)]GlcNAc
# In short: as §1
# [3] = molecular target: Gal(b1-4)GlcNAc(b1-3)Gal(b1-4)GlcNAc(b1-3)Gal(b1-4)GlcNAc(b1-3)Gal(b1-4)GlcNAc(b1-3)Gal(b1-4)GlcNAc(b1-2)[Gal(b1-4)GlcNAc(b1-3)Gal(b1-4)GlcNAc(b1-3)Gal(b1-4)GlcNAc(b1-3)Gal(b1-4)GlcNAc(b1-3)Gal(b1-4)GlcNAc(b1-6)]Man(a1-6)[Gal(b1-4)GlcNAc(b1-3)Gal(b1-4)GlcNAc(b1-3)Gal(b1-4)GlcNAc(b1-3)Gal(b1-4)GlcNAc(b1-3)Gal(b1-4)GlcNAc(b1-2)Man(a1-3)]Man(b1-4)GlcNAc(b1-4)[Fuc(a1-6)]GlcNAc
# In short: as §1
# [4] = molecular target: Gal(b1-4)GlcNAc(b1-3)Gal(b1-4)GlcNAc(b1-3)Gal(b1-4)GlcNAc(b1-3)Gal(b1-4)GlcNAc(b1-3)Gal(b1-4)GlcNAc(b1-3)Gal(b1-4)GlcNAc(b1-2)Man(a1-3)[Gal(b1-4)GlcNAc(b1-3)Gal(b1-4)GlcNAc(b1-3)Gal(b1-4)GlcNAc(b1-3)Gal(b1-4)GlcNAc(b1-3)Gal(b1-4)GlcNAc(b1-3)Gal(b1-4)GlcNAc(b1-2)Man(a1-6)]Man(b1-4)GlcNAc(b1-4)GlcNAc
# In short: as §1
# [5] = molecular target: Gal(b1-4)GlcNAc(b1-3)Gal(b1-4)GlcNAc(b1-3)GalNAc
# In short: as §1
# [6] = molecular target: Gal(b1-4)GlcNAc(b1-3)Gal(b1-4)GlcNAc(b1-3)[Gal(b1-4)GlcNAc(b1-3)Gal(b1-4)GlcNAc(b1-6)]GalNAc
# In short: as §1
# [7] = molecular target: Gal(b1-4)GlcNAc(b1-3)Gal(b1-4)GlcNAc(b1-6)[Gal(b1-3)]GalNAc
# In short: as §1
# [8] = molecular target: Gal(b1-4)GlcNAc(b1-3)Gal(b1-4)[Fuc(a1-3)]GlcNAc(b1-3)Gal(b1-4)[Fuc(a1-3)]GlcNAc
# In short: as §1
# [9] = molecular target: Gal(b1-4)GlcNAc(b1-3)GalNAc
# In short: as §1
# [10] = molecular target: Gal(b1-4)GlcNAc(b1-3)[Fuc(a1-3)GlcNAc(b1-6)]Gal(b1-4)Glc
# In short: as §1
# [11] = molecular target: Gal(b1-4)GlcNAc(b1-3)[Gal(b1-4)GlcNAc(b1-6)]Gal(b1-4)GlcNAc
# In short: as §1
# [12] = molecular target: Gal(b1-4)GlcNAc(b1-3)[Gal(b1-4)GlcNAc(b1-6)]GalNAc
# In short: as §1
# [13] = molecular target: Gal(b1-4)GlcNAc(b1-3)[GlcNAc(b1-6)]Gal(b1-4)GlcNAc
# In short: as §1
# [14] = molecular target: Gal(b1-4)GlcNAc(b1-6)Gal(b1-4)GlcNAc
# In short: as §1
# [15] = molecular target: Gal(b1-4)GlcNAc(b1-6)GalNAc
# In short: as §1
# [16] = molecular target: Gal(b1-4)GlcNAc(b1-6)[Gal(b1-3)]GalNAc
# In short: as §1
# [17] = molecular target: Gal(b1-4)GlcNAc(b1-6)[Gal(b1-3)]GlcNAc
# In short: as §1
# [18] = molecular target: Gal(b1-4)GlcNAc(b1-6)[Gal(b1-4)GlcNAc(b1-3)]GalNAc
# In short: as §1
# Gal(b1-4)GlcNAc6P = molecular target: Gal(b1-4)GlcNAc6P
# In short: as §1
# Gal(b1-6)Gal = molecular target: Gal(b1-6)Gal
# In short: as §1
# Gal3S(b1-3)GalNAc = molecular target: Gal3S(b1-3)GalNAc
# In short: as §1
# Gal3S(b1-3)GlcNAc = molecular target: Gal3S(b1-3)GlcNAc
# In short: as §1
# [19] = molecular target: Gal3S(b1-3)[Fuc(a1-4)]GlcNAc
# In short: as §1
# Gal3S(b1-4)Glc = molecular target: Gal3S(b1-4)Glc
# In short: as §1
# Gal3S(b1-4)Glc6S = molecular target: Gal3S(b1-4)Glc6S
# In short: as §1
# Gal3S(b1-4)GlcNAc = molecular target: Gal3S(b1-4)GlcNAc
# In short: as §1
# Gal3S(b1-4)GlcNAc6S = molecular target: Gal3S(b1-4)GlcNAc6S
# In short: as §1
# [20] = molecular target: Gal3S(b1-4)[Fuc(a1-3)]Glc6S
# In short: as §1
# [21] = molecular target: Gal3S(b1-4)[Fuc(a1-3)]GlcNAc
# In short: as §1
# [22] = molecular target: Gal3S(b1-4)[Fuc(a1-3)]GlcNAc6S
# In short: as §1
# Gal3S4S(b1-4)GlcNAc = molecular target: Gal3S4S(b1-4)GlcNAc
# In short: as §1
# Gal3S6S(b1-4)GlcNAc = molecular target: Gal3S6S(b1-4)GlcNAc
# In short: as §1
# Gal3S6S(b1-4)GlcNAc6S = molecular target: Gal3S6S(b1-4)GlcNAc6S
# In short: as §1
# Gal4S(b1-4)GlcNAc = molecular target: Gal4S(b1-4)GlcNAc
# In short: as §1
# Gal4S6S(b1-4)GlcNAc = molecular target: Gal4S6S(b1-4)GlcNAc
# In short: as §1
# Gal6P(b1-4)GlcNAc = molecular target: Gal6P(b1-4)GlcNAc
# In short: as §1
# Gal6S(b1-3)GlcNAc = molecular target: Gal6S(b1-3)GlcNAc
# In short: as §1
# Gal6S(b1-3)GlcNAc6S = molecular target: Gal6S(b1-3)GlcNAc6S
# In short: as §1
# Gal6S(b1-4)Glc = molecular target: Gal6S(b1-4)Glc
# In short: as §1
# Gal6S(b1-4)Glc6S = molecular target: Gal6S(b1-4)Glc6S
# In short: as §1
# Gal6S(b1-4)GlcNAc = molecular target: Gal6S(b1-4)GlcNAc
# In short: as §1
# Gal6S(b1-4)GlcNAc6S = molecular target: Gal6S(b1-4)GlcNAc6S
# In short: as §1
# GalNAc(a1-3)Gal = molecular target: GalNAc(a1-3)Gal
# In short: as §1
# GalNAc(a1-3)GalNAc = molecular target: GalNAc(a1-3)GalNAc
# In short: as §1
# [23] = molecular target: GalNAc(a1-3)GalNAc(b1-3)Gal(a1-4)Gal(b1-4)Glc
# In short: as §1
binder,measurement,setting,value
"OVGAL11 (Ovis aries), AAF64320 (protein) MDSLPNPYLQSVSLTVCYMVKIKANLLSAFGKNPELQVDFGTGTGQGGNIPFRFWYCDGMVVMNTFTDGSWQKEEKVLTDAFVPGQPFELQFLVLEKEYQVFVKNKPICQFAHRLPLQSVKMLDVRGDIVLTSVDTL",glycan array binding signal (z-score),[1],-0.028
same,glycan array binding signal (z-score),[2],-0.01
same,glycan array binding signal (z-score),[3],-0.013
same,glycan array binding signal (z-score),[4],-0.093
same,glycan array binding signal (z-score),[5],-0.114
same,glycan array binding signal (z-score),[6],-0.059
same,glycan array binding signal (z-score),[7],-0.04
same,glycan array binding signal (z-score),[8],-0.048
same,glycan array binding signal (z-score),[9],-0.096
same,glycan array binding signal (z-score),[10],-0.088
same,glycan array binding signal (z-score),[11],-0.078
same,glycan array binding signal (z-score),[12],0.686
same,glycan array binding signal (z-score),[13],-0.064
same,glycan array binding signal (z-score),[14],-0.118
same,glycan array binding signal (z-score),[15],-0.134
same,glycan array binding signal (z-score),[16],-0.171
same,glycan array binding signal (z-score),[17],-0.588
same,glycan array binding signal (z-score),[18],-0.094
same,glycan array binding signal (z-score),Gal(b1-4)GlcNAc6P,-0.062
same,glycan array binding signal (z-score),Gal(b1-6)Gal,-0.128
same,glycan array binding signal (z-score),Gal3S(b1-3)GalNAc,0.01
same,glycan array binding signal (z-score),Gal3S(b1-3)GlcNAc,-0.154
same,glycan array binding signal (z-score),[19],-0.035
same,glycan array binding signal (z-score),Gal3S(b1-4)Glc,0.199
same,glycan array binding signal (z-score),Gal3S(b1-4)Glc6S,0.138
same,glycan array binding signal (z-score),Gal3S(b1-4)GlcNAc,-0.068
same,glycan array binding signal (z-score),Gal3S(b1-4)GlcNAc6S,0.039
same,glycan array binding signal (z-score),[20],-0.062
same,glycan array binding signal (z-score),[21],0.033
same,glycan array binding signal (z-score),[22],-0.057
same,glycan array binding signal (z-score),Gal3S4S(b1-4)GlcNAc,-0.092
same,glycan array binding signal (z-score),Gal3S6S(b1-4)GlcNAc,-0.175
same,glycan array binding signal (z-score),Gal3S6S(b1-4)GlcNAc6S,0.724
same,glycan array binding signal (z-score),Gal4S(b1-4)GlcNAc,-0.142
same,glycan array binding signal (z-score),Gal4S6S(b1-4)GlcNAc,-0.237
same,glycan array binding signal (z-score),Gal6P(b1-4)GlcNAc,-0.07
same,glycan array binding signal (z-score),Gal6S(b1-3)GlcNAc,-0.086
same,glycan array binding signal (z-score),Gal6S(b1-3)GlcNAc6S,-0.103
same,glycan array binding signal (z-score),Gal6S(b1-4)Glc,-0.139
same,glycan array binding signal (z-score),Gal6S(b1-4)Glc6S,-0.207
same,glycan array binding signal (z-score),Gal6S(b1-4)GlcNAc,0.165
same,glycan array binding signal (z-score),Gal6S(b1-4)GlcNAc6S,-0.068
same,glycan array binding signal (z-score),GalNAc(a1-3)Gal,0.164
same,glycan array binding signal (z-score),GalNAc(a1-3)GalNAc,-0.154
same,glycan array binding signal (z-score),[23],-0.113
